Reference: PMC2757915, “The Elongator Complex Interacts with PCNA and Modulates Transcriptional Silencing and Sensitivity to DNA Damage Agents” (PLoS Genetics, 2009)
Residue numbers refer to the chain shown, from its start. Results are given in words; binding and its absence hold for the method and conditions named. Some entries that bind do so weakly or less than the wild type.

T1: Elp2-TAP (S. cerevisiae) (UniProt P42935)
T1 sequence: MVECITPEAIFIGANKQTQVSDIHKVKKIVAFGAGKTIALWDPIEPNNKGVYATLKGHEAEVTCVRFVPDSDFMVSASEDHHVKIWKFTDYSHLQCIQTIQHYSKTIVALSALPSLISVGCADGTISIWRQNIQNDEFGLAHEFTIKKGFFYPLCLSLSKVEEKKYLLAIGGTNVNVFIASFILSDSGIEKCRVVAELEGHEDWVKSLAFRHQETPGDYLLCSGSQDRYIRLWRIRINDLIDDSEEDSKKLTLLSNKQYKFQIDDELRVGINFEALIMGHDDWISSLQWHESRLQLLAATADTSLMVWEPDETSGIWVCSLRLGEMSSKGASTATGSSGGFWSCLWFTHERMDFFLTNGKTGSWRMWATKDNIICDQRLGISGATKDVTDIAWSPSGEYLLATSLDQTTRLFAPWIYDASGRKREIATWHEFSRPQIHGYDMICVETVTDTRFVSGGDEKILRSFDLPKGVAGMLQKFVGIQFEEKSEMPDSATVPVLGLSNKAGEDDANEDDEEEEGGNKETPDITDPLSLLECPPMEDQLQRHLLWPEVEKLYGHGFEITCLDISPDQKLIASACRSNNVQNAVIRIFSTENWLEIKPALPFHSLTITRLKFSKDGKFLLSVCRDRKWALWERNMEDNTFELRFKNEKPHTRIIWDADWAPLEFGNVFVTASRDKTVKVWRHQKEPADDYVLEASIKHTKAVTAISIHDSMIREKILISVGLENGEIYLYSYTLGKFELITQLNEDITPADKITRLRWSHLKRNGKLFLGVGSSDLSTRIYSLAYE

T2: Elp3-TAP (S. cerevisiae) (UniProt Q02908)
T2 sequence: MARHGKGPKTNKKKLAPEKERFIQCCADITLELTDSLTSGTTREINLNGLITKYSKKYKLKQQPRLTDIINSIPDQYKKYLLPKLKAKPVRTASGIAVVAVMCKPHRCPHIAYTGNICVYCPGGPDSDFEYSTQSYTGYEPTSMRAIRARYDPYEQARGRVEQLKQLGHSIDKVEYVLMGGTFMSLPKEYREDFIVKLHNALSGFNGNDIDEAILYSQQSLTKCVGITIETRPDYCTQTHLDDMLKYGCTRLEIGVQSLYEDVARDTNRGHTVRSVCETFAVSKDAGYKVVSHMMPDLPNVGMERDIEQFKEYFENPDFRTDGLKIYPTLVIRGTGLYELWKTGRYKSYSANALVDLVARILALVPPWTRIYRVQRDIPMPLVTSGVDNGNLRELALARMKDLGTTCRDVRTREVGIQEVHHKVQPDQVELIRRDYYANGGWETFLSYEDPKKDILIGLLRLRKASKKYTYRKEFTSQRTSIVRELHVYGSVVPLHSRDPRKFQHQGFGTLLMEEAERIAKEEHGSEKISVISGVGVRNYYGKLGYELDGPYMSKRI

T3: Elp5-TAP (S. cerevisiae) (UniProt P38874)
T3 sequence: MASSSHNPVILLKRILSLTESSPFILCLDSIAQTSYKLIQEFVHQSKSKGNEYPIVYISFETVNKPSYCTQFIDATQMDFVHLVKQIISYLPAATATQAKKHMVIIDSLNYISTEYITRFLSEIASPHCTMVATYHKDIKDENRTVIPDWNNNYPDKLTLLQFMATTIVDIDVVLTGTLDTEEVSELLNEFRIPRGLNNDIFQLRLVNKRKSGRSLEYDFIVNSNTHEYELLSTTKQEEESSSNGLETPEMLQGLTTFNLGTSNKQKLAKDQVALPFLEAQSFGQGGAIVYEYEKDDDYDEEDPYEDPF

B1: elp3-5 (protein, UniProt Q02908 1-557)
chain: T2 sequence with Y540A, Y541A
B2: elp3-3 (protein, UniProt Q02908 1-557)
chain: T2 sequence with G180R, G181R
B3: elp3-2 (protein, UniProt Q02908 1-557)
chain: T2 sequence with C118A, C121A
B4: wild type Elp3 expressed from a plasmid (protein, UniProt Q02908 1-557)
chain: T2 sequence
B5: elp3-4 (protein, UniProt Q02908 1-557)
chain: T2 sequence with G168R
B6: Elp2 (protein, UniProt P42935 1-788)
chain: T1 sequence
B7: Elp1 (protein, UniProt Q06706 1-1349)
chain: MVEHDKSGSKRQELRSNMRNLITLNKGKFKPTASTAEGDEDDLSFTLLDSVFDTLSDSITCVLGSTDIGAIEVQQFMKDGSRNVLASFNIQTFDDKLLSFVHFADINQLVFVFEQGDIITATYDPVSLDPAETLIEIMGTIDNGIAAAQWSYDEETLAMVTKDRNVVVLSKLFEPISEYHLEVDDLKISKHVTVGWGKKETQFRGKGARAMEREALASLKASGLVGNQLRDPTMPYMVDTGDVTALDSHEITISWRGDCDYFAVSSVEEVPDEDDETKSIKRRAFRVFSREGQLDSASEPVTGMEHQLSWKPQGSLIASIQRKTDLGEEDSVDVIFFERNGLRHGEFDTRLPLDEKVESVCWNSNSEALAVVLANRIQLWTSKNYHWYLKQELYASDISYVKWHPEKDFTLMFSDAGFINIVDFAYKMAQGPTLEPFDNGTSLVVDGRTVNITPLALANVPPPMYYRDFETPGNVLDVACSFSNEIYAAINKDVLIFAAVPSIEEMKKGKHPSIVCEFPKSEFTSEVDSLRQVAFINDSIVGVLLDTDNLSRIALLDIQDITQPTLITIVEVYDKIVLLRSDFDYNHLVYETRDGTVCQLDAEGQLMEITKFPQLVRDFRVKRVHNTSAEDDDNWSAESSELVAFGITNNGKLFANQVLLASAVTSLEITDSFLLFTTAQHNLQFVHLNSTDFKPLPLVEEGVEDERVRAIERGSILVSVIPSKSSVVLQATRGNLETIYPRIMVLAEVRKNIMAKRYKEAFIVCRTHRINLDILHDYAPELFIENLEVFINQIGRVDYLNLFISCLSEDDVTKTKYKETLYSGISKSFGMEPAPLTEMQIYMKKKMFDPKTSKVNKICDAVLNVLLSNPEYKKKYLQTIITAYASQNPQNLSAALKLISELENSEEKDSCVTYLCFLQDVNVVYKSALSLYDVSLALLVAQKSQMDPREYLPFLQELQDNEPLRRKFLIDDYLGNYEKALEHLSEIDKDGNVSEEVIDYVESHDLYKHGLALYRYDSEKQNVIYNIYAKHLSSNQMYTDAAVAYEMLGKLKEAMGAYQSAKRWREAMSIAVQKFPEEVESVAEELISSLTFEHRYVDAADIQLEYLDNVKEAVALYCKAYRYDIASLVAIKAKKDELLEEVVDPGLGEGFGIIAELLADCKGQINSQLRRLRELRAKKEENPYAFYGQETEQADDVSVAPSETSTQESFFTRYTGKTGGTAKTGASRRTAKNKRREERKRARGKKGTIYEEEYLVQSVGRLIERLNQTKPDAVRVVEGLCRRNMREQAHQIQKNFVEVLDLLKANVKEIYSISEKDRERVNENGEVYYIPEIPVPEIHDFPKSHIVDF

target: T1, Elp2-TAP (S. cerevisiae); assay: tandem affinity purification; TAP-tagged subunit purified from yeast lysate (IgG sepharose, TEV elution, calmodulin beads; buffer A 25 mM Tris pH 8.0, 100 mM NaCl), co-purified proteins on SDS-PAGE, silver staining; strains: wild type, elp3Δ, or elp3Δ with plasmids for wild type Elp3 or elp3 mutants

binding	Binder
binds	B1
no binding	B2
no binding	B3
binds	B4
binds	B5

target: T2, Elp3-TAP (S. cerevisiae); assay: as above

binding	Binder
binds	B6
binds	B7

target: T3, Elp5-TAP (S. cerevisiae); assay: as above

binding	Binder
binds	B1
no binding	B2
no binding	B3
binds	B4
binds	B7
